Source: publication PMC9742639, “Inhibition of glycogen synthase kinase-3-beta (GSK3β) blocks nucleocapsid phosphorylation and SARS-CoV-2 replication” (Molecular Biomedicine, 2022)

Test system: SARS-CoV-2
Experiment: High-content screen / dose-response of SARS-CoV-2-infected Huh-7.5.1 cells (dsRNA, nucleocapsid)
Type: cell-based
Conditions: Huh-7.5.1 cells infected with SARS-CoV-2

**Q.** With `CSc1ccc(-c2coc3ccc(-c4nnc(N)o4)cc23)cc1Cl` [P-9071942] as the molecule, how does the “Selectivity Index (SI), CC50 over ED50” value read?
**A.** The value was 8.

**Q.** How did the “Selectivity Index (SI), CC50 over ED50” value turn out when `C[S+]([O-])c1ccc(-c2coc3ccc(-c4nnc(SCc5cccc(F)c5)o4)cc23)cc1` (centres unmarked) [P-7657632] was run?
**A.** Its value is 14.
